The least precise scores are not listed. The source holds two more conditions with little spread; they are left out. Read del as a deletion of the residues named and ins as an insertion between two positions. For some of these results: The data file names ogerin without a concentration.

The text below walks through data of the GPR68 mutational scans of Howard et al. (2025).

Sequences and labels used below:
B1: GPR68, Q15743 (parent)
chain: MGNITADNSSMSCTIDHTIHQTLAPVVYVTVLVVGFPANCLSLYFGYLQIKARNELGVYLCNLTVADLFYICSLPFWLQYVLQHDNWSHGDLSCQVCGILLYENIYISVGFLCCISVDRYLAVAHPFRFHQFRTLKAAVGVSVVIWAKELLTSIYFLMHEEVIEDENQHRVCFEHYPIQAWQRAINYYRFLVGFLFPICLLLASYQGILRAVRRSHGTQKSRKDQIQRLVLSTVVIFLACFLPYHVLLLVRSVWEASCDFAKGVFNAYHFSLLLTSFNCVADPVLYCFVSETTHRDLARLRGACLAFLTCSRTGRAREAYPLGAPEASGKSGAQGEEPELLTKLHPAFQTPNSPGSGGFPTGRLA

In series [1] the parent is B1. Nature of the series: cAMP reporter score (Enrich2 score, wild type = 0); higher = more signal; HEK293T, FACS bins.
Series [2] covers variants of B1. Nature of the series: surface expression score (Enrich2 score, wild type = 0); higher = more signal; HEK293T, FACS bins.

As for MGNITADNSSMSCTIDHTIHQTLAPVVYVTVKVVGFPANCLSLYFGYLQIKARNELGVYLCNLTVADLFYICSLPFWLQYVLQHDNWSHGDLSCQVCGILLYENIYISVGFLCCISVDRYLAVAHPFRFHQFRTLKAAVGVSVVIWAKELLTSIYFLMHEEVIEDENQHRVCFEHYPIQAWQRAINYYRFLVGFLFPICLLLASYQGILRAVRRSHGTQKSRKDQIQRLVLSTVVIFLACFLPYHVLLLVRSVWEASCDFAKGVFNAYHFSLLLTSFNCVADPVLYCFVSETTHRDLARLRGACLAFLTCSRTGRAREAYPLGAPEASGKSGAQGEEPELLTKLHPAFQTPNSPGSGGFPTGRLA [L32K], the cAMP reporter score in series [1] (pH 5.5) was -1.02; in series [1] (pH 6) it was -1.61; in series [1] (pH 6, modulator: ogerin), -1.4; in series [1] (pH 6.5, modulator: ogerin), -0.592. The surface expression score in series [2] is -3.16.

As to MGNITADNSSMSCTIDHTIHQTLAPVVYVTVMVVGFPANCLSLYFGYLQIKARNELGVYLCNLTVADLFYICSLPFWLQYVLQHDNWSHGDLSCQVCGILLYENIYISVGFLCCISVDRYLAVAHPFRFHQFRTLKAAVGVSVVIWAKELLTSIYFLMHEEVIEDENQHRVCFEHYPIQAWQRAINYYRFLVGFLFPICLLLASYQGILRAVRRSHGTQKSRKDQIQRLVLSTVVIFLACFLPYHVLLLVRSVWEASCDFAKGVFNAYHFSLLLTSFNCVADPVLYCFVSETTHRDLARLRGACLAFLTCSRTGRAREAYPLGAPEASGKSGAQGEEPELLTKLHPAFQTPNSPGSGGFPTGRLA [L32M], the cAMP reporter score in series [1] (pH 5.5) was determined as 1.06; in series [1] (pH 6) it was 2.38; in series [1] (pH 6, modulator: ogerin), 1.25; in series [1] (pH 6.5, modulator: ogerin), 4.1.

In the case of MGNITADNSSMSCTIDHTIHQTLAPVVYVTVHVVGFPANCLSLYFGYLQIKARNELGVYLCNLTVADLFYICSLPFWLQYVLQHDNWSHGDLSCQVCGILLYENIYISVGFLCCISVDRYLAVAHPFRFHQFRTLKAAVGVSVVIWAKELLTSIYFLMHEEVIEDENQHRVCFEHYPIQAWQRAINYYRFLVGFLFPICLLLASYQGILRAVRRSHGTQKSRKDQIQRLVLSTVVIFLACFLPYHVLLLVRSVWEASCDFAKGVFNAYHFSLLLTSFNCVADPVLYCFVSETTHRDLARLRGACLAFLTCSRTGRAREAYPLGAPEASGKSGAQGEEPELLTKLHPAFQTPNSPGSGGFPTGRLA [L32H], the cAMP reporter score in series [1] (pH 5.5) is -1.29; in series [1] (pH 6) it was -0.676; in series [1] (pH 6, modulator: ogerin) it was -1.06; in series [1] (pH 6.5, modulator: ogerin) it was -1.53. In addition, in series [2], the surface expression score is -2.41.

In the case of MGNITADNSSMSCTIDHTIHQTLAPVVYVTVIVVGFPANCLSLYFGYLQIKARNELGVYLCNLTVADLFYICSLPFWLQYVLQHDNWSHGDLSCQVCGILLYENIYISVGFLCCISVDRYLAVAHPFRFHQFRTLKAAVGVSVVIWAKELLTSIYFLMHEEVIEDENQHRVCFEHYPIQAWQRAINYYRFLVGFLFPICLLLASYQGILRAVRRSHGTQKSRKDQIQRLVLSTVVIFLACFLPYHVLLLVRSVWEASCDFAKGVFNAYHFSLLLTSFNCVADPVLYCFVSETTHRDLARLRGACLAFLTCSRTGRAREAYPLGAPEASGKSGAQGEEPELLTKLHPAFQTPNSPGSGGFPTGRLA [L32I], the cAMP reporter score is -0.606 in series [1] (pH 5.5); 1.54 in series [1] (pH 6); -0.629 in series [1] (pH 6, modulator: ogerin); 0.885 in series [1] (pH 6.5, modulator: ogerin). Further, the surface expression score in series [2] is -0.902.
